Out of some 310,000 compounds screened, about 18,000 (5.8%) were called active. Inconclusive means that the source gave no clear call. Such entries were picked first, then a sample of the others. Calls follow the shape of the dose curve; as a rule, active = well fitted inhibition curve with a large enough effect; inconclusive = small, poorly fitted or top-dose-only effect, or another doubt; inactive = no such curve, though single readings can be large or run the other way. No potency is given beside an inconclusive call; the fits are too rough.
assay: Primary qHTS for delayed death inhibitors of the malarial parasite plastid, 48 hour incubation; settings: P. falciparum luciferase growth in erythrocytes; series mostly up to 28.7 µM; activity change, negative = inhibition: at the top concentration
Summary of the method: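 Compounds are pin-transferred into medium, infected erythrocytes (2% hematocrit, 0.1% parasitemia final) are added, and plates sit one parasite generation at 37 C in 5% CO2. Detection reagent is then added and luminescence measured.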
% is scaled to controls: 0 for no effect and ±100 for the full control effect; potency is read from the fitted curve at half-maximal effect; tags tell the direction and shape of the fitted curve.

Row | Structure (SMILES) | Potency | activity change, negative = inhibition
1 | COCCn1cnc2c(c1=O)c1nc3ccccc3nc1n2/N=C/c1ccc(OC)c(OC)c1 | active: 1.65 µM | 
2 | COc1ccc(CCNC(=O)c2cc(C3CC3)nc3c2cnn3C(C)C)cc1 | inconclusive [inhibitor, single point] | 
3 | Cc1ccc(NC(=O)c2ccc(NS(=O)(=O)/C=C/c3ccccc3)cc2)nc1 | inconclusive [inhibitor, single point] | 
4 | Cc1onc(-c2ccccc2Cl)c1C(=O)Nc1nnc(-c2ccc(F)cc2)s1 |  | inactive: 11.3%
5 | CCOc1ccccc1OCCCC(=O)Nc1cccc(-n2cnnn2)c1C |  | inactive: -16.1%
6 | COc1ccc(O)c(-c2[nH]ncc2C(=O)c2cccc(C)c2)c1 |  | inactive: -4.51%
7 | Cc1cccc(-n2c(N)cc(=O)nc2SCC(=O)Nc2cc(C)on2)c1 | inconclusive [inhibitor, partial curve] | 
8 | CCC(C)N1CCNCC1 (stereo not given) |  | inactive: 13.1%
9 | Cc1cc(C)c2cc3c(N)c(C(=O)N4CCOCC4)sc3nc2c1 | inconclusive [inhibitor, single point] | 
10 | COc1cc(SC#N)ccc1N=Cc1c(C)[nH]n(-c2ccc(Cl)cc2)c1=O | active: 2.08 µM | 
11 | CC(C)C[C@H](NC(=O)c1[nH]cnc1C(=O)N[C@@H](C)c1ccccc1)C(=O)OC(C)(C)C | inconclusive [inhibitor, full curve, poor fit] | 
12 | CCOC(=O)Cn1c(CN2CCN(C(c3ccccc3)c3ccccc3)CC2)nc2c1c(=O)n(C)c(=O)n2C | active: 4.15 µM | 
13 | COc1cc(NS(=O)(=O)c2ccc(NC(=O)COc3ccc(C)cc3)cc2)nc(OC)n1 | inconclusive [inhibitor, single point] | 
14 | O=C(NCCOc1cccnc1)C1CCC(=O)N(Cc2ccccc2F)C1 (stereo not given) |  | inactive: 11.7%
15 | CCCN1CCC(NC(=O)Nc2cc(Cl)ccc2OC)CC1 |  | inactive: 2.68%
16 | Cc1ccc(N(CC(=O)NC(C)c2ccccc2)S(=O)(=O)c2c(C)noc2C)cc1 (stereo not given) | inconclusive [inhibitor, partial curve, poor fit] | 
17 | Cc1onc(-c2c(Cl)cccc2Cl)c1COC(=O)c1ccc(Cl)cc1 | inconclusive [inhibitor, partial curve, poor fit] | 
18 | CC(C)(C)c1ccc(-c2nn(CCC#N)cc2/C=N/O)cc1 |  | inactive: 11.5%
19 | CCOC(=O)C1CCCN(C(=O)c2cccc(NC(=O)C(CC)CC)c2)C1 (stereo not given) |  | inactive: -17%
20 | COc1ccccc1-n1nnnc1SCc1cc2c(cc1Br)OCO2 | inconclusive [inhibitor, single point] | 
21 | CCCCc1noc2c1/C(=N\O)CC(c1ccccc1)C2 (stereo not given) | inconclusive [inhibitor, partial curve] | 
22 | CCOc1ncccc1C(=O)Nc1ccc(Cl)c(S(=O)(=O)N2CCCC2)c1 | inconclusive [inhibitor, partial curve] | 
23 | COc1ccc([C@]2(C(C)C)ON(c3ccccc3C(F)(F)F)C2=O)cc1 | active: 1.04 µM | 
24 | CN1CCN(C(=O)/C=C\C(=O)O)CC1 |  | inactive: -6.96%

Row | Structure (SMILES) | Potency | activity change, negative = inhibition
25 | Cc1cccc(C(C(=O)NC2CCCCC2)N(Cc2cccnc2)C(=O)c2csnn2)c1 (stereo not given) | inconclusive [inhibitor, partial curve, poor fit] | 
26 | NNc1nnc2c3cc(F)ccc3n(CCc3ccccc3)c2n1 | inconclusive [inhibitor, single point] | 
27 | COC(=O)c1ccc(NC(=O)CN(c2ccc(C)cc2)S(=O)(=O)c2c(C)n[nH]c2C)cc1 | inconclusive [inhibitor, partial curve] | 
28 | NC(=O)c1ccc(NC(=O)CSc2cn(CC(=O)N3CCOCC3)c3ccccc23)cc1 |  | inactive: 17.5%
29 | OC(COc1cccc2ccccc12)CN1CCN(c2ccc(Cl)cc2)CC1 (stereo not given) | inconclusive [inhibitor, single point] | 
30 | CCCn1c(N)c(C(=O)CSc2nnc(Cc3ccccc3)o2)c(=O)n(C)c1=O | active: 8.28 µM | 
31 | CCCNC(=O)N1CCN(S(=O)(=O)c2ccc(C)cc2)CC1 | inconclusive [inhibitor, partial curve, poor fit] | 
32 | COCCN(Cc1cc2cc3c(cc2nc1Cl)OCO3)C(=O)c1ccc(C)cc1 | inconclusive [inhibitor, partial curve, poor fit] | 
33 | O=C(NC(=S)NCc1ccc2c(c1)OCO2)c1ccccc1 |  | inactive: 5.61%
34 | CCCCc1ncc(CN2CCC(CC3CCCCO3)(C(=O)OCC)CC2)[nH]1 (stereo not given) | inconclusive [inhibitor, single point] | 
35 | N=c1c(C(=O)NCCN2CCOCC2)cc2c(=O)n3ccccc3nc2n1CCc1ccccc1 | active: 3.29 µM | 
36 | CN(C)S(=O)(=O)N1CCC(Oc2cccc(C(=O)NCCC3=CCCCC3)c2)CC1 | inconclusive [inhibitor, single point] | 
37 | COc1cccc(/C=C/C(=O)Nc2ccc(N3CCOCC3)cc2)c1OC |  | inactive: 23.5%
38 | CSc1ccccc1OCc1cc(C(=O)N2CCCC2c2nonc2C)no1 (stereo not given) |  | inactive: 23.3%
39 | Cc1ccccc1Cn1c(=O)n(CCCC(=O)NCc2ccco2)c(=O)c2ccccc21 | inconclusive [inhibitor, single point] | 
40 | CCOc1ccccc1NC(=O)Nc1ccc(OC)nc1 | inconclusive [inhibitor, single point] | 
41 | CC(C)[C@@H](C(=O)N1CCNCC1)n1cc(CCO)nn1 |  | inactive: 36.1%
42 | COCCNC(=O)/C(C#N)=C/c1ccc(OCc2ccccc2)cc1 | inconclusive [inhibitor, full curve] | 
43 | O=C(Nc1ccccc1)Nc1nnc(COc2ccccc2F)s1 | inconclusive [inhibitor, single point] | 
44 | CCOC(=O)C1CCCN(C(=O)COc2ccc(S(=O)(=O)N(CC)c3ccccc3)cc2)C1 (stereo not given) | inconclusive [inhibitor, single point] | 
45 | Cc1c(C(=O)N2CCC3(CC2)OCCO3)oc2ccc(S(=O)(=O)N3CCCCC3)cc12 | inconclusive [inhibitor, partial curve] | 
46 | Fc1c(F)c(F)c(CSc2nc3ccccc3[nH]2)c(F)c1F | inconclusive [inhibitor, single point] | 
47 | COC(=O)[C@@]12CCCCN1[C@H](c1ccc(-c3ccc(OC)cc3)cc1)[C@@H]1C(=O)N(C)C(=O)[C@@H]12 | inconclusive [inhibitor, partial curve] | 
48 | O=C(COc1ccccc1)Nc1sc2c(c1C(=O)NCc1cccnc1)CCCC2 | inconclusive [inhibitor, single point] | 

Row | Structure (SMILES) | Potency | activity change, negative = inhibition
49 | COc1cc2cc(C(=O)O)n(C)c2c(OC)c1OC |  | inactive: 6.62%
50 | O=C(NCc1ccc(F)cc1)C(=O)NCC1OCCN1C(=O)c1cccs1 (stereo not given) |  | inactive: 12.6%
51 | CCOC(=O)CN(C(=O)COc1ccc2c(C)cc(=O)oc2c1)c1ccc(OCC)cc1 | inconclusive [inhibitor, single point] | 
52 | Cc1noc(C)c1COc1cccc(C(=O)Nc2ccccc2)c1 | inconclusive [inhibitor, single point] | 
53 | CCOC(=O)c1c(NC(=O)COC(=O)c2ccc(NC(=O)CC#N)cc2)sc(C(=O)NC)c1C | active: 13.1 µM | 
54 | CNC(=S)N1N=C2c3ccccc3CCC2C1c1ccccc1Cl (stereo not given) | inconclusive [inhibitor, single point] | 
55 | CC(Sc1ncn[nH]1)C(=O)c1c(N)n(C)c(=O)n(C)c1=O (stereo not given) |  | inactive: -25.2%
56 | CC(C)(C)NC(=O)C(c1c[nH]c2ccccc12)N(C(=O)Cn1nnc(-c2ccc(Cl)cc2)n1)c1ccccc1F (stereo not given) | inconclusive [inhibitor, partial curve, poor fit] | 
57 | COc1ccc(Cl)cc1NC(=O)COC(=O)c1ccc(C)o1 | inconclusive [inhibitor, single point] | 
58 | CCN1C/C(=C/c2ccc(N3CCOCC3)cc2)C(=O)/C(=C/c2ccc(N3CCOCC3)cc2)C1 | active: 7.38 µM | 
59 | COc1ccccc1OCC(=O)Nc1cc(C(F)(F)F)ccc1-n1cncn1 | active: 9.28 µM | 
60 | Cc1ccc(N(C)C(=O)C2CCCN2S(=O)(=O)c2cccc3nsnc23)cc1 (stereo not given) | inconclusive [inhibitor, partial curve, poor fit] | 
61 | FC(F)(F)c1ccc(CN2C[C@@H]3C(c4ccccc4)C4(c5ccccc5)CC3(C4)[C@H]2c2ccccc2)cc1 (stereo not given in full) | inconclusive [inhibitor, single point] | 
62 | Cc1ccc(C)c(SCC(=O)Nc2oc(C)c3c(C)n[nH]c(=O)c23)c1 |  | inactive: -14.5%
63 | COc1ccc(-c2cc(C(F)(F)F)nc(N3CCOCC3)n2)cc1OC | inconclusive [inhibitor, partial curve] | 
64 | COc1ccc(NC(=O)C(C/C=C(/C)Cl)C(C)=O)cc1 (stereo not given) | inconclusive [inhibitor, single point] | 
65 | Nc1nc(N)c2c(ccc3nccc32)[nH]1 | active: 1.65 µM | 
66 | CN(C)CCCN(C(=O)c1ccc(S(=O)(=O)N2CCCCC2)cc1)c1nc2cc3c(cc2s1)OCO3 | active: 11.7 µM | 
67 | O=c1cc(N2CCCCC2)c(-c2ccccc2)nn1Cc1ccccc1 | inconclusive [inhibitor, single point] | 
68 | Cc1ccc(NC(=O)N2CCCC2C(=O)NCc2ccc(Cl)cc2)cc1 (stereo not given) |  | inactive: 42%
69 | COc1cc(OC)c2c(-c3ccccc3)cc(=O)oc2c1C(CCN1CCCC(C)C1)c1ccc(N(C)C)cc1 (stereo not given) | inconclusive [inhibitor, single point] | 
70 | Cc1cc(/C=C2\NC(=O)NC2=O)c(C)n1-c1ccc(N2CCOCC2)cc1 | inconclusive [inhibitor, single point] | 

Source: PubChem BioAssay AID504832 (National Center for Advancing Translational Sciences (NCATS), 2011)
